# In PubChem BioAssay (Tox21):
# Several values for one entry are separate records, joined by “and”; a condition that tells them apart may be missing. Equal entries are not always repeated. Activity calls are given as the source filed them. Unless noted, calls follow the shape of the dose curve; as a rule, active = well fitted curve in the direction sought with a large enough effect in the repeat runs; inconclusive = weak or mixed curves; inactive = no such curve, though single readings can be large; an effect the other way counts as inactive or inconclusive.
# Legend:
# [1] = qHTS assay for small molecule agonists of the p53 signaling pathway (AID 651631; calls by dose curve; also: nearly all actives have a fitted effect of over 15% in size; also: potency is read from the fitted curve at half-maximal effect; as to activation: % is scaled to controls: 0 for no effect and ±100 for the full control effect); conditions: HCT-116 p53RE-bla reporter, beta-lactamase FRET ratio, 16 h; activation: at 73.3 µM (top of the series) unless noted
# Procedure, shortened: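 Agonist mode screen using a stably integrated beta-lactamase gene under p53 response elements in HCT-116 cells. Compound exposure lasts 16 h at 37 °C; fluorescence intensity is measured following 2 h FRET substrate loading.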
# [2] = qHTS assay to test for compound auto fluorescence at 460 nm (blue) in HEK293 cells (AID 720678); also: potency is read from the fitted curve at half-maximal effect
# Procedure, shortened: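 Blue-channel (Ex/Em 405/460 nm) intensity measured in HEK293 cultures after overnight compound exposure at 37C; signal expressed relative to triamterene. Cells plated 2,000 per well in 10% dialyzed FBS medium and allowed 4-5 hr to attach.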
# [3] = qHTS assay to test for compound auto fluorescence at 460 nm (blue) in HepG2 cell free culture (AID 720685); also: potency is read from the fitted curve at half-maximal effect
# Procedure, shortened: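 Cell-free plates of MEM plus 10% FBS received 23 nL compound or DMSO vehicle; blue-channel (405/460 nm) intensity scored against triamterene as reference fluorophore.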
# [4] = target: Glucocorticoid receptor (Homo sapiens) (UniProt P04150); assay: qHTS assay to identify small molecule agonists of the glucocorticoid receptor (GR) signaling pathway (AID 720691; active = well fitted activation curve with a large enough effect in the signal ratio in the repeat runs, not every such curve was filed as active; inconclusive = weak or mixed curves, or effect the other way; inactive = no such curve, though single readings can be large or run the other way; the % refers to the signal ratio; also: potency is read from the fitted curve at half-maximal effect); conditions: GR-bla HeLa, beta-lactamase reporter ratio, 18 h; activation: at 62.4 µM (top of the series) unless noted
# Procedure, shortened: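 HeLa GR-bla reporter line; cells pre-incubated 4 h, compound in DMSO 18 h at 37 C; LiveBLAzer B/G FRET substrate 2 h RT; fluorescence intensity read-out.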
# [5] = target: Glucocorticoid receptor (Homo sapiens) (UniProt P04150); assay: qHTS assay to identify small molecule antagonists of the glucocorticoid receptor (GR) signaling pathway (AID 720692; active = well fitted inhibition curve with a large enough effect in the signal ratio in the repeat runs, not every such curve was filed as active; inconclusive = weak or mixed curves, or effect the other way; inactive = no such curve, though single readings can be large or run the other way; the % refers to the signal ratio; also: potency is read from the fitted curve at half-maximal effect); conditions: GR-bla HeLa, beta-lactamase FRET ratio, dexamethasone-stimulated, 18 h; activity change, negative = inhibition: at 58.5 µM (top of the series) unless noted
# Procedure, shortened: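 Read-out: beta-lactamase FRET substrate fluorescence, 2 h at room temperature, in HeLa cells stably carrying a GRE-driven bla reporter. Compounds were co-incubated with 5 nM dexamethasone agonist (final) for 18 h at 37 C.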
# [6] = target: Androgen receptor (Homo sapiens) (UniProt P10275); assay: qHTS assay to identify small molecule antagonists of the androgen receptor (AR) signaling pathway (AID 743035; active = well fitted inhibition curve with a large enough effect in the signal ratio in the repeat runs, not every such curve was filed as active; inconclusive = weak or mixed curves, or effect the other way; inactive = no such curve, though single readings can be large or run the other way; the % refers to the signal ratio; also: potency is read from the fitted curve at half-maximal effect); conditions: HEK293 AR-UAS-bla, R1881-stimulated, beta-lactamase FRET, 16 h; activity change, negative = inhibition: at 58.5 µM (top of the series) unless noted
# Procedure, shortened: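 AR-bla HEK293 reporter cells; 4 h settle at 37C/5% CO2; compound + R1881 agonist, 16 h at 37C; LiveBLAzer B/G FRET substrate 2 h RT; fluorescence intensity read. qHTS format.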
# [7] = target: Androgen receptor (Homo sapiens) (UniProt P10275); assay: qHTS assay to identify small molecule agonists of the androgen receptor (AR) signaling pathway (AID 743036; active = well fitted activation curve with a large enough effect in the signal ratio in the repeat runs, with a control signal flat, not every such curve was filed as active; inconclusive = weak or mixed curves, or effect the other way; inactive = no such curve, though single readings can be large or run the other way; the % refers to the signal ratio; also: potency is read from the fitted curve at half-maximal effect); conditions: HEK293 AR-UAS-bla GripTite, beta-lactamase FRET ratio, 16 h; activation: at 62.4 µM (top of the series) unless noted
# Procedure, shortened: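 Quantitative HTS of the Tox21 10K library in HEK293 cells bearing a stably integrated UAS-controlled beta-lactamase reporter. Compound exposure lasted 16 h at 37C. Reporter activity was detected by FRET substrate fluorescence after 2 h at room temperature.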
# [8] = qHTS assay to identify small molecule antagonists of the androgen receptor (AR) signaling pathway using the MDA cell line - cell viability counter screen (AID 743041; also: potency is read from the fitted curve at half-maximal effect; nearly all actives have a fitted effect of over 45% in size); conditions: MDA-kb2 viability, CellTiter-Fluor, 16 h, cells co-treated with R1881 androgen agonist; viability change, negative = cytotoxic: at 70.3 µM (top of the series)
# Procedure, shortened: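 Viability read by CellTiter-Fluor fluorescence in the same wells as the antagonist screen, added after 15.5 h of a 16 h, 37C exposure. Human breast carcinoma MDA-kb2 AR-luc cells, compounds co-dosed with agonist R1881.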
# [9] = qHTS assay to identify small molecule antagonists of the thyroid receptor (TR) signaling pathway - cell viability counter screen (AID 743064); conditions: GH3.TRE-Luc viability, CellTiter-Fluor, 24 h; activity change, negative = cytotoxic: at 70.3 µM (top of the series) unless noted; also: nearly all actives have a fitted effect of over 50% in size; also: potency is read from the fitted curve at half-maximal effect
# Procedure, shortened: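 Rat GH3 pituitary tumor cells stably expressing two TR response elements driving luciferase were plated, rested 4 h, then dosed with library compounds and T3 (1 nM final). After 23.5 h at 37 °C, CellTiter-Fluor was added for 30 min and fluorescence recorded.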
# [10] = target: Estrogen receptor (Homo sapiens) (UniProt P03372); assay: qHTS assay to identify small molecule antagonists of the estrogen receptor alpha (ER-alpha) signaling pathway (AID 743069; active = well fitted curve in the direction sought with a large enough effect in the signal ratio in the repeat runs, not every such curve was filed as active; inconclusive = weak or mixed curves, or effect the other way; inactive = no such curve, though single readings can be large or run the other way; the % refers to the signal ratio; also: potency is read from the fitted curve at half-maximal effect); conditions: HEK293 ER-alpha-UAS-bla, beta-lactamase ratio, antagonist mode; activity, negative = inhibition: at 69.4 µM (top of the series) unless noted
# Procedure, shortened: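 Antagonist mode: compounds in DMSO were co-added with 17beta-estradiol to ER-alpha-bla HEK293 cells (2% charcoal-stripped serum) and left 18 h at 37C. Reporter inhibition was measured as FRET fluorescence after 2 h LiveBLAzer substrate at room temperature.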
# [11] = target: Estrogen receptor (Homo sapiens) (UniProt P03372); assay: qHTS assay to identify small molecule agonists of the estrogen receptor alpha (ER-alpha) signaling pathway (AID 743075; calls by dose curve); conditions: HEK293 ER-alpha-UAS-bla, beta-lactamase FRET ratio, 18 h; activation: at 70.1 µM (top of the series) unless noted
# [12] = target: Estrogen receptor (Homo sapiens) (UniProt P03372); assay: qHTS assay to identify small molecule agonists of the estrogen receptor alpha (ER-alpha) signaling pathway using the BG1 cell line (AID 743079); conditions: BG1Luc4E2 cells, ERE-luciferase agonist, 22 h; activation: at 70.3 µM (top of the series) unless noted; also: nearly all actives have a fitted effect of over 20% in size; also: potency is read from the fitted curve at half-maximal effect; as to activation: % is scaled to controls: 0 for no effect and ±100 for the full control effect
# [13] = qHTS assay to identify small molecule antagonists of the estrogen receptor alpha (ER-alpha) signaling pathway using the BG1 cell line - cell viability counter screen (AID 743081); conditions: BG1Luc4E2 viability, CellTiter-Fluor, 22 h; activity change, negative = cytotoxicity: at 70.3 µM (top of the series);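 also: compound given together with 17beta-estradiol as the ER stimulus; potency is read from the fitted curve at half-maximal effect; nearly all actives have a fitted effect of over 45% in size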
# [14] = qHTS assay to identify aromatase inhibitors - cell viability counter screen (AID 743084); conditions: MCF-7 aro ERE viability, CellTiter-Fluor, 24 h; activity change, negative = cytotoxicity: at 70.3 µM (top of the series);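 also: cells stimulated with testosterone during compound exposure; potency is read from the fitted curve at half-maximal effect; nearly all actives have a fitted effect of over 55% in size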
# [15] = qHTS assay to identify small molecule that activate the aryl hydrocarbon receptor (AhR) signaling pathway - cell viability counter screen (AID 743086); also: potency is read from the fitted curve at half-maximal effect; nearly all actives have a fitted effect of over 45% in size
# Procedure, shortened: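 Cytotoxicity counter screen: CellTiter-Fluor signal (30 min, 37 C) in 4000 HepG2 cells/well carrying the DRE-luciferase reporter, following 24 h compound exposure at 37 C.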
# [16] = target: Peroxisome proliferator-activated receptor gamma (Homo sapiens) (UniProt P37231); assay: qHTS assay to identify small molecule agonists of the peroxisome proliferator-activated receptor gamma (PPARg) signaling pathway (AID 743094; active = well fitted activation curve with a large enough effect in the signal ratio in the repeat runs, not every such curve was filed as active; inconclusive = weak or mixed curves, or effect the other way; inactive = no such curve, though single readings can be large or run the other way; the % refers to the signal ratio; also: potency is read from the fitted curve at half-maximal effect); conditions: HEK293H PPARg-UAS-bla, beta-lactamase FRET ratio, 17 h; activation: at 57 µM (top of the series) unless noted
# Procedure, shortened: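 HEK293H PPARg-bla cells, 5 h settle at 37C/5% CO2; compound (DMSO) 17 h, 37C; B/G FRET substrate 1 h RT; fluorescence intensity read-out. qHTS format.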
# [17] = qHTS assay for small molecule disruptors of the mitochondrial membrane potential (AID 720635); conditions: HepG2 mitochondrial membrane potential, Mito-MPS dye ratio; ratio activity, negative = MMP loss: at 83.2 µM (top of the series) unless noted; also: potency is read from the fitted curve at half-maximal effect; as to ratio activity, negative = MMP loss: % is scaled to controls: 0 for no effect and ±100 for the full control effect
# Procedure, shortened: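 Mitochondrial membrane potential tracked with Mito-MPS dye, red aggregates (ex 540/em 590 nm) against green monomers (ex 490/em 535 nm). Compound treatment 1 hr at 37C, dye 30 min in HepG2.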
# [18] = qHTS assay to identify small molecule antagonists of the thyroid receptor (TR) signaling pathway (AID 743065); also: % is scaled to controls: 0 for no effect and ±100 for the full control effect; nearly all actives have a fitted effect of over 55% in size
# Procedure, shortened: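 Antagonism measured as loss of luciferase signal in GH3 cells stably carrying a TRE-luciferase reporter, co-treated with compound and T3 (1 nM final) for 23.5 h at 37 C. Viability was read in the same well by CellTiter-Fluor.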
# [19] = qHTS assay to identify small molecule antagonists of the glucocorticoid receptor (GR) signaling pathway - cell viability counter screen (AID 720693); conditions: GR-bla HeLa viability, CellTiter-Glo luminescence, 18 h, with 5 nM dexamethasone present; viability change, negative = cytotoxic: at 58.5 µM (top of the series) unless noted; also: potency is read from the fitted curve at half-maximal effect; nearly all actives have a fitted effect of over 55% in size
# [20] = qHTS assay for identifying genotoxic compounds that show differential cytotoxicity against isogenic chicken DT40 cell lines with known DNA damage response pathways - Rev3 mutant cell line (AID 743014); conditions: chicken DT40 Rev3-/- viability, CellTiter-Glo, 40 h; activity, negative = cytotoxicity: at 68.4 µM (top of the series); also: nearly all actives have a fitted effect of over 55% in size; also: potency is read from the fitted curve at half-maximal effect
# [21] = tested on: thyroid hormone receptor (rat, GH3 cells); assay: qHTS assay to identify small molecule agonists of the thyroid receptor (TR) signaling pathway (AID 743066; calls by dose curve; also: % is scaled to controls: 0 for no effect and ±100 for the full control effect); conditions: GH3.TRE-Luc cells, TR agonist luciferase, 24 h; activation: at 83.9 µM (top of the series) unless noted
# [22] = qHTS assay to identify small molecule antagonists of the estrogen receptor alpha (ER-alpha) signaling pathway - cell viability counter screen (AID 743074; calls by dose curve;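 also: HEK293 cells carrying ER-alpha-UAS-bla reporter stimulated with 17beta-estradiol; potency is read from the fitted curve at half-maximal effect; nearly all actives have a fitted effect of over 45% in size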)
# [23] = qHTS assay to identify small molecule antagonists of the estrogen receptor alpha (ER-alpha) signaling pathway using the BG1 cell line (AID 743080; calls by dose curve;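 also: BG1 cells stimulated with 17beta-estradiol alongside compound; potency is read from the fitted curve at half-maximal effect; nearly all actives have a fitted effect of over 25% in size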); conditions: BG1Luc4E2 ERE-luciferase antagonist mode, luminescence; activity change, negative = inhibition: at 70.3 µM (top of the series) unless noted
# Procedure, shortened: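 Luciferase inhibition measured with ONE-Glo after 30 min at RT in BG1Luc4E2 cells given test compounds and 17beta-estradiol for 21.5 h at 37 C; CellTiter-Fluor viability read in the same wells beforehand.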
# [24] = qHTS assay for identifying genotoxic compounds that show differential cytotoxicity against isogenic chicken DT40 cell lines with known DNA damage response pathways - wild type cell line (AID 743012); conditions: DT40 wild type chicken cells viability, CellTiter-Glo, 40 h; activity change, negative = cytotoxicity: at 68.4 µM (top of the series) unless noted; also: potency is read from the fitted curve at half-maximal effect; nearly all actives have a fitted effect of over 60% in size
# Procedure, shortened: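 CellTiter-Glo luminescence readout of viability in wild type DT40 cells after 40 h compound exposure at 37 C/5% CO2; 300 cells/well; reagent incubated 30 min at room temperature before reading.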
# [25] = qHTS assay for identifying genotoxic compounds that show differential cytotoxicity against isogenic chicken DT40 cell lines with known DNA damage response pathways - Rad54/Ku70 mutant cell line (AID 743015); conditions: DT40 Rad54/Ku70 mutant viability, CellTiter-Glo, 40 h; activity change, negative = cytotoxicity: at 66.8 µM (top of the series); also: potency is read from the fitted curve at half-maximal effect; nearly all actives have a fitted effect of over 60% in size
# Tags tell the direction and shape of the fitted curve or compound fluorescence and quenching.
# Sequence of UniProt P10275 (P10275 whole entry, looked up): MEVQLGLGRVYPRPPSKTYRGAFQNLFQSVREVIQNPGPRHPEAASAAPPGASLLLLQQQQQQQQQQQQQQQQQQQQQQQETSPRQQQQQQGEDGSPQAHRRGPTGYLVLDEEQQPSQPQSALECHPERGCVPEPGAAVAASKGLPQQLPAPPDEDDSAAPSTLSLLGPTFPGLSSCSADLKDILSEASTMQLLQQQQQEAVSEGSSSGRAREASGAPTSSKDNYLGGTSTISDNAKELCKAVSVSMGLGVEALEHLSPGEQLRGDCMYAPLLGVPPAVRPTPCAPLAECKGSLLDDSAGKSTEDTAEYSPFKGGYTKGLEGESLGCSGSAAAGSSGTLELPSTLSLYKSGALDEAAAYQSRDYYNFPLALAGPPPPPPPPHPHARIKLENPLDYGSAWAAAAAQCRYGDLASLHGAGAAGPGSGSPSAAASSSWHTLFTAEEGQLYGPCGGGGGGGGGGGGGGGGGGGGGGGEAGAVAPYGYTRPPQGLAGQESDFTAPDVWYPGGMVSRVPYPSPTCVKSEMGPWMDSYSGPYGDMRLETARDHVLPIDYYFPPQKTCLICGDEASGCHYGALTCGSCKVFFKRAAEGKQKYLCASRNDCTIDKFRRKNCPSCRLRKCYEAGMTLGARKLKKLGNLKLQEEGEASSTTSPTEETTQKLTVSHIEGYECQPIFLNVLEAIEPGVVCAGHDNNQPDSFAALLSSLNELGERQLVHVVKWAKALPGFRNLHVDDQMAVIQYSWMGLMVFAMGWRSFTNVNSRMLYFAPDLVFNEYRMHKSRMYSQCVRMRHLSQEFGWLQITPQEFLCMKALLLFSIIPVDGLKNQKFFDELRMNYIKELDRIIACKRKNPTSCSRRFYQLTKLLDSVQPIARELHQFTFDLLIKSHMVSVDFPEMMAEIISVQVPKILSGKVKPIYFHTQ
# Sequence of UniProt P37231 (P37231 whole entry, looked up): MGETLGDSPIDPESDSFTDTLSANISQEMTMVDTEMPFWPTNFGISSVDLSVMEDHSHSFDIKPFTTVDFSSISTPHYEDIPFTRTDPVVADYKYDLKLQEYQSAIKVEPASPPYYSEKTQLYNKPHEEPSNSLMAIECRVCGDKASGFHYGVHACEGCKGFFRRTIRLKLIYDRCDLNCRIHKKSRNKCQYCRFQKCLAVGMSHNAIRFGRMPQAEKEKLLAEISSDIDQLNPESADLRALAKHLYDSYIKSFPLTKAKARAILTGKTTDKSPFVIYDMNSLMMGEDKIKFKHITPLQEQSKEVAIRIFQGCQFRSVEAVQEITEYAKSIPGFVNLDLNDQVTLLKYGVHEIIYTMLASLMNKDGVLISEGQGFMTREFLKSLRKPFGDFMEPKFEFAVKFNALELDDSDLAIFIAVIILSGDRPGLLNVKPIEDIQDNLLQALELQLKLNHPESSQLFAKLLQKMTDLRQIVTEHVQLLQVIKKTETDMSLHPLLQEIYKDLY
# Sequence of UniProt P04150 (P04150 whole entry, looked up): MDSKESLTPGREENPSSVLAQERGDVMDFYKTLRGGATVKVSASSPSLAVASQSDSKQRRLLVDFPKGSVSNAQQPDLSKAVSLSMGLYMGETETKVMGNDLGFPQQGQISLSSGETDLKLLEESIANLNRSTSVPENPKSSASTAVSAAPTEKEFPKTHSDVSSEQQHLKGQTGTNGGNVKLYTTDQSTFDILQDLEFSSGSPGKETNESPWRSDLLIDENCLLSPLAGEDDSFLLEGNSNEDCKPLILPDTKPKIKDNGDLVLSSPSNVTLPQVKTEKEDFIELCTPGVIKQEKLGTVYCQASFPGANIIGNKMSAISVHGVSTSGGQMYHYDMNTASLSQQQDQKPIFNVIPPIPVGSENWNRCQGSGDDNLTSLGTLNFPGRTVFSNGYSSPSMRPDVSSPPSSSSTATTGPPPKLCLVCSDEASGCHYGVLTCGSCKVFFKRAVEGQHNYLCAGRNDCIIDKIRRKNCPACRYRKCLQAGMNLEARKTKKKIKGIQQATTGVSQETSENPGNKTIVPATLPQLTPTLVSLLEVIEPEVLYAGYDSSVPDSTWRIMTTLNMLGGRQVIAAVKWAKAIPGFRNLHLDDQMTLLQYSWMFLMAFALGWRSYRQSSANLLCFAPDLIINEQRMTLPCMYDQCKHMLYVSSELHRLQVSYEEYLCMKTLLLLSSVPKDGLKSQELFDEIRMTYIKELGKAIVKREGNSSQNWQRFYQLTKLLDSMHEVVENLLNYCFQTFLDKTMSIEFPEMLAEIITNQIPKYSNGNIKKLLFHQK
# Sequence of UniProt P03372 (P03372 whole entry, looked up): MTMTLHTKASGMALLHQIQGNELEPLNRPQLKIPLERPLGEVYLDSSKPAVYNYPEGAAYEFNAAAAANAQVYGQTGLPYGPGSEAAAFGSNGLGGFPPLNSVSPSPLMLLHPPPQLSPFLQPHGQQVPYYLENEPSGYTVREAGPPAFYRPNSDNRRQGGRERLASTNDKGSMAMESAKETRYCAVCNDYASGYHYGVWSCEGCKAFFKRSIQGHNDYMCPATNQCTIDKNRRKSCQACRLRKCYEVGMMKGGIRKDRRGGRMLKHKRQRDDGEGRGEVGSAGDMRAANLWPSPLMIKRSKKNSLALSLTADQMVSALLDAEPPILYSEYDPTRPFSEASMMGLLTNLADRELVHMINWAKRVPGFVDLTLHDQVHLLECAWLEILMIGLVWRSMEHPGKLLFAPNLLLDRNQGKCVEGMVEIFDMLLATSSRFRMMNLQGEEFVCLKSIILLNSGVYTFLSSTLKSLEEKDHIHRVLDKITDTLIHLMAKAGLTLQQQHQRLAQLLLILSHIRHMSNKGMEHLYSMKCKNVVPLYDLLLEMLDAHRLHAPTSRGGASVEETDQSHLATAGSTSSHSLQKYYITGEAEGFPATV
smiles,measurement,setting,value
O=c1ccc2cc(O[C@@H]3O[C@H](CO)[C@@H](O)[C@H](O)[C@H]3O)c(O)cc2o1,Potency,[1],active: 7.17 µM
same,Potency,[2],active: 10 µM [fluorescent]
same,Potency,[3],active: 8.91 µM [fluorescent]
same,Potency,[4],inconclusive: 10.2 µM [activator]
same,Potency,[5],"inconclusive: 10.2 µM [activator, partial curve]"
same,Potency,[6],"inconclusive: 8.11 µM [rising, partial curve]"
same,Potency,[7],active: 9.1 µM
same,Potency,[8],"inconclusive: 10.6 µM [rising, partial curve]"
same,Potency,[9],"inconclusive: 12.7 µM [rising, partial curve]"
same,Potency,[10],inconclusive: 11.5 µM [fluorescent]
same,Potency,[11],"inconclusive: 6.44 µM [fluorescent, partial curve, poor fit]"
same,Potency,[12],inactive
same,Potency,[13],"inconclusive: 11.4 µM [rising, partial curve]"
same,Potency,[14],"inconclusive: 10.1 µM [rising, partial curve]"
same,Potency,[15],"inconclusive: 11.4 µM [rising, partial curve]"
same,Potency,[16],"inconclusive: 11.5 µM [fluorescent, partial curve, poor fit]"
C=CCC1(C(C)CCC)C(=O)N=C(S)NC1=O (stereo not drawn),Potency,[1],inactive
same,Potency,[17],inactive
same,"activity change, negative = inhibition",[6],inconclusive: -30.7%
same,Potency,[9],inactive
same,Potency,[18],inactive
Cc1ccc(O)cc1C,Potency,[17],inconclusive: 67 µM [inhibitor]
C[C@]12CC[C@@H]3c4ccc(OC(=O)N(CCCl)CCCl)cc4CC[C@H]3[C@@H]1CC[C@@H]2OP(=O)(O)O,Potency,[1],active: 7.5 µM and active: 29.8 µM
same,Potency,[17],inactive
same,"activity change, negative = inhibition",[5],inconclusive: -37.1%
same,Potency,[19],"inconclusive: 26.8 µM [cytotoxic, single point]"
same,Potency,[20],"inconclusive: 26.6 µM [cytotoxic, partial curve] and inactive"
same,Potency,[6],active: 10.7 µM and active: 19 µM
same,Potency,[7],"inconclusive: 5.35 µM [activator, full curve, poor fit]"
same,activation,[7],inconclusive: 13.1%
same,Potency,[9],"inconclusive: 1.06 µM [rising, full curve, poor fit] and inconclusive: 473 nM [rising, full curve, poor fit]"
same,Potency,[10],"inconclusive: 134 nM [activator, full curve] and inconclusive: 67.4 nM [activator, full curve]"
same,Potency,[11],active: 21.3 nM [inconclusive] and active: 16.9 nM [inconclusive]
same,Potency,[12],active: 4.7 nM and active: 16.8 nM
same,Potency,[15],"inconclusive: 26.6 µM [rising, partial curve, poor fit]"
CCCC(C)C1(CC)C(=O)NC(=O)NC1=O (stereo not drawn),"ratio activity, negative = MMP loss",[17],inconclusive: -5.77%
COC(COC(N)=O)C1=C(N2CC2)C(=O)C(C)=C(N2CC2)C1=O (stereo not drawn),Potency,[1],active: 0.298 µM
same,Potency,[5],"inconclusive: 4.25 µM [cytotoxic, full curve]"
same,Potency,[19],active: 1.9 µM
same,"activity, negative = cytotoxicity",[20],inconclusive: -77.2%
same,Potency,[6],"inconclusive: 4.25 µM [falling, partial curve, poor fit]"
same,Potency,[7],"inconclusive: 26.8 µM [rising, single point]"
same,Potency,[9],active: 0.841 µM
same,activation,[21],inconclusive: -8.31% [phenotype inactive]
same,Potency,[10],inconclusive: 9.52 µM
same,Potency,[22],active: 13.4 µM
same,Potency,[12],"inconclusive: 596 nM [inhibitor, full curve]"
same,Potency,[23],active: 0.531 µM
same,Potency,[13],active: 6.68 µM
same,Potency,[14],"inconclusive: 29.8 µM [cytotoxic, single point]"
same,activation,[16],inconclusive: -15.8%
O=[N+]([O-])c1cc(I)c(O)c(I)c1,Potency,[1],active: 5.31 µM
same,Potency,[5],"inconclusive: 3.79 µM [falling, full curve]"
same,Potency,[19],"inconclusive: 6.01 µM [cytotoxic, full curve]"
same,Potency,[24],"inconclusive: 33.5 µM [cytotoxic, single point]"
same,Potency,[20],"inconclusive: 33.5 µM [cytotoxic, single point]"
same,Potency,[25],"inconclusive: 33.5 µM [cytotoxic, single point]"
same,"activity change, negative = inhibition",[6],inconclusive: 7.21%
same,Potency,[7],inconclusive: 23.9 µM
same,activation,[21],inconclusive: -8.5% [phenotype inactive]
same,Potency,[22],"inconclusive: 16.9 µM [cytotoxic, partial curve, poor fit]"
same,Potency,[13],active: 10.6 µM
same,activation,[16],inconclusive: -20.1%
